In the supplement of paper PMC12217912:
The other results are listed elsewhere or left out. Sequences were assembled here from the parent chain. Inactive controls read about 0.05.

B1: TEV protease; numbered along this chain (parent)
chain: MGESLFKGPRDYNPISSSICHLTNESDGHTTSLYGIGFGPFIITNKHLFRRNNGTLVVQSLHGVFKVKDTTTLQQHLVDGRDMIIIRMPKDFPPFPQKLKFREPQREERICLVTTNFQTKSMSSMVSDTSCTFPSGDGIFWKHWIQTKDGQCGSPLVSTRDGFIVGIHSASNFTNTNNYFTSVPKNFMELLTNQEAQQWVSGWRLNADSVLWGGHKVFMVKPEEPFQPVKEATQL

Variants of: B1
Assay: raw area under fraction-flipped curve 0-4 h after induction (AUC4h, not background-subtracted), DNA-recorder readout of cleavage of the substrate (dimensionless); higher = more cleavage of the substrate by the protease variant
Conditions: temperature: 34 °C; time window: 0-4 h after rhamnose induction
Experimental: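 In vivo DNA recorder in E. coli TOP10(DE3) ΔrhaA at 34 °C. Each TEVp single-site mutant (parent TEVp 0) is paired with a single-site variant of the 7-mer TEVs (canonical ENLYFQ|S). The substrate sits between flexible linkers in a Bxb1-sfGFP-TEVs-SsrA fusion, so cleavage stabilises Bxb1 and speeds flipping of a recombination array, read by NGS. The value is the raw area under the fraction-flipped curve over 0-4 h after rhamnose induction (AUC4h), with ≥20 reads per time point. It is not background-subtracted; inactive controls average about 0.047.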
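Note: Bxb1 expression induced with 0.2% (w/v) L-rhamnose at OD600 near 0.5, cultures sampled hourly, flipped fraction per protease–substrate barcode pair counted by paired-end Illumina sequencing.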

Row | Variant | area with substrate ENCYFQS | area with substrate ENDYFQS | area with substrate ENGYFQS | area with substrate ENHYFQS | area with substrate ENIYFQS | area with substrate ENNYFQS | area with substrate ENPYFQS | area with substrate ENQYFQS | area with substrate ENRYFQS | area with substrate ENTYFQS | area with substrate ENWYFQS | area with substrate ENYYFQS | area with substrate ENFYFQS | area with substrate ENKYFQS | area with substrate ENMYFQS | area with substrate ENVYFQS | area with substrate ENSYFQS | area with substrate ENEYFQS
1 | E107I | 0.0506 | 0.0692 | 0.0588 | 0.0412 | 0.103 | 0.0649 | 0.0639 | 0.0565 | 0.0569 | 0.0669 | 0.0027 | 0.0667 |  |  |  |  |  | 
2 | V113F | 0.0733 |  | 0.0867 |  |  | 0.0654 |  |  | 0.0526 | 0.0667 |  |  | 0.157 | 0.0574 | 0.0768 | 0.0692 |  | 
3 | T114I | 0.0745 |  |  | 0.0787 |  |  |  | 0.06 | 0.0663 | 0.0633 |  |  | 0.0571 | 0.0735 | 0.0732 | 0.025 | 0.066 | 
4 | N116H | 0.0677 | 0.0635 | 0.0164 | 0.0463 |  |  |  |  |  | 0.0857 |  |  |  | 0.0541 | 0.0451 |  | 0.0521 | 
5 | F117Q | 0.0789 | 0.0495 | 0.0661 | 0.0408 |  |  |  | 0.0436 | 0.0599 | 0.0453 | 0.0445 | 0.0522 | 0.072 | 0.0594 | 0.0878 | 0.0839 | 0.04 | 
6 | Q118K | 0.084 | 0.0642 |  |  | 0.0771 |  | 0.0161 | 0.0684 | 0.0503 |  |  |  |  | 0.0655 |  |  | 0.0742 | 0.0638
7 | Q118R | 0.0721 |  | 0.0659 | 0.0683 | 0.129 | 0.0902 | 0.0588 | 0.0631 | 0.0617 | 0.0692 |  | 0.0541 | 0.0611 |  | 0.0872 | 0.0782 | 0.0531 | 
8 | T119Y | 0.0599 | 0.0657 |  | 0.0412 |  | 0.0711 | 0.0571 | 0.0861 | 0.0721 |  |  |  | 0.0559 | 0.0669 |  | 0.0755 | 0.0672 | 0.0561
9 | M125H | 0.0652 | 0.0602 | 0.0703 | 0.0622 |  |  |  | 0.0637 |  | 0.0597 | 0.0028 | 0.059 | 0.0592 | 0.0546 | 0.103 | 0.069 | 0.0564 | 
10 | F133A | 0.06 |  | 0.0709 |  |  | 0.0609 |  | 0.0469 | 0.0492 | 0.0679 | 0 | 0.0604 |  | 0.075 |  | 0.0524 |  | 
11 | F133I | 0.0586 | 0.0616 |  |  |  | 0.0834 |  |  | 0.062 | 0.0643 |  |  |  | 0.0631 | 0.0788 | 0.0639 | 0.0479 | 0.0555
12 | D137I | 0.0617 | 0.0494 | 0.0587 | 0.0564 | 0.12 | 0.0359 |  | 0.0623 | 0.0442 | 0.0682 |  |  | 0.0624 | 0.0716 | 0.0964 | 0.0825 | 0.0686 | 0.0552
13 | I139C | 0.0331 | 0.0636 | 0.104 |  |  | 0.0609 |  | 0.0588 |  | 0.062 |  |  |  | 0.0658 | 0.0727 |  | 0.0622 | 
14 | I139R | 0.0523 | 0.0421 | 0.0677 | 0.0709 |  | 0.0494 | 0.0551 | 0.0588 | 0.0642 | 0.0491 |  |  |  | 0.0667 | 0.0663 | 0.0593 | 0.0623 | 0.061
15 | F140T | 0.0727 | 0.0636 | 0.0641 | 0.0591 |  |  |  | 0.0609 |  | 0.0551 |  | 0.059 |  | 0.0565 | 0.064 | 0.0538 |  | 0.0533
16 | I145L | 0.08 | 0.047 |  |  |  | 0.0574 | 0.0581 | 0.0286 |  |  | 0.0058 |  |  | 0.0581 |  | 0.0736 |  | 
